Measurements as given in article PMC3794860, “An RNA-Binding Complex Involved in Ribosome Biogenesis Contains a Protein with Homology to tRNA CCA-Adding Enzyme” (PLoS Biology, 2013).
Where a chain is given by its changes, count along the chain named. In names and notes the source's numbering stands. No constants are given. Whether binding was seen depends on the method and setting. Some binding calls cover weakened binding; strength is not graded here. Where a sequence is shown, tags or fusion partners need not be part of it.

T1: Utp22 fused to GAL4 DNA-binding domain (S. cerevisiae) (UniProt P53254)
T1 sequence: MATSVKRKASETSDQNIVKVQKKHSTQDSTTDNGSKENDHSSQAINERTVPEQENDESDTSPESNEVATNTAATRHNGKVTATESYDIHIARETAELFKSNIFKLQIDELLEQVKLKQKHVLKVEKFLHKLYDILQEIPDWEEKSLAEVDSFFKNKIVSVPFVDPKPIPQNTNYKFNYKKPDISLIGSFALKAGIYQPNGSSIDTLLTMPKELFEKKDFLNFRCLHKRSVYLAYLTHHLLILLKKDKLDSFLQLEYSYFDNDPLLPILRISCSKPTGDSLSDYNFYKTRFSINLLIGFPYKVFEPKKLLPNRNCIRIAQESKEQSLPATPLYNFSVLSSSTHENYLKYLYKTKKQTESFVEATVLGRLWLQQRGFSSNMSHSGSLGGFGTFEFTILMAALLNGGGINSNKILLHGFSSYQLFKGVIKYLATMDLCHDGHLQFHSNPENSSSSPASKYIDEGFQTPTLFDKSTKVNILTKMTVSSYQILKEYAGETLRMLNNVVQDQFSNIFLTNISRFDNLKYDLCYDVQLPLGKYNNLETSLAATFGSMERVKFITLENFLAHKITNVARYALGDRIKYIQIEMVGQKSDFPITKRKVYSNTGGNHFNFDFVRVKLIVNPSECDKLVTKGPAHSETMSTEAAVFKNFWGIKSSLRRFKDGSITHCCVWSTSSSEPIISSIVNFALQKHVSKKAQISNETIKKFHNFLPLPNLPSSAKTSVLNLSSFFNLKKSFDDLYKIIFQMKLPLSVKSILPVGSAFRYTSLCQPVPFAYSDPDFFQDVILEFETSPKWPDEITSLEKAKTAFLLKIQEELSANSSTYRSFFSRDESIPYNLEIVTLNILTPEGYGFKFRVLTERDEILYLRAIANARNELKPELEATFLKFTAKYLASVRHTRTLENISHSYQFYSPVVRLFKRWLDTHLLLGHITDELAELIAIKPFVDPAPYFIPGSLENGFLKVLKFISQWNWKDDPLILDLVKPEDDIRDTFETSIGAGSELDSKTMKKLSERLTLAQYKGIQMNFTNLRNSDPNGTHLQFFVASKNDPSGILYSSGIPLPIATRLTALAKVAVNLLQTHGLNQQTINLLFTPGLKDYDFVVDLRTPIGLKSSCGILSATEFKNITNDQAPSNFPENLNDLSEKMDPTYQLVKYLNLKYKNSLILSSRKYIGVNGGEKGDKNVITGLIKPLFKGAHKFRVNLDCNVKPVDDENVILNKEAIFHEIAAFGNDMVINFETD

B1: Rrp7 (natural protein, S. cerevisiae, UniProt P25368 1-297, looked up)
chain: MGIEDISAMKNGFIVVPFKLPDHKALPKSQEASLHFMFAKRHQSSNSNESDCLFLVNLPLLSNIEHMKKFVGQLCGKYDTVSHVEELLYNDEFGLHEVDLSALTSDLMSSTDVNEKRYTPRNTALLKFVDAASINNCWNALKKYSNLHAKHPNELFEWTYTTPSFTTFVNFYKPLDIDYLKEDIHTHMAIFEQREAQAQEDVQSSIVDEDGFTLVVGKNTKSLNSIRKKILNKNPLSKHENKAKPISNIDKKAKKDFYRFQVRERKKQEINQLLSKFKEDQERIKVMKAKRKFNPYT
notes: N-terminal His6-tag followed by a PreScission site, cleaved with PreScission protease; source: High Five insect cells, recombinant baculovirus, coexpressed with Utp22, copurified (HisTrap, heparin, Superdex 200); not shown: His6, N-terminal, cleaved
B2: Rrp7 CTD deletion mutant (Δ190–297) (domain or fragment, UniProt P25368 1-189)
chain: MGIEDISAMKNGFIVVPFKLPDHKALPKSQEASLHFMFAKRHQSSNSNESDCLFLVNLPLLSNIEHMKKFVGQLCGKYDTVSHVEELLYNDEFGLHEVDLSALTSDLMSSTDVNEKRYTPRNTALLKFVDAASINNCWNALKKYSNLHAKHPNELFEWTYTTPSFTTFVNFYKPLDIDYLKEDIHTHMA
B3: Rrp7 Δ95–105 (removal of the β4–β5 loop) (protein, UniProt P25368)
chain: MGIEDISAMKNGFIVVPFKLPDHKALPKSQEASLHFMFAKRHQSSNSNESDCLFLVNLPLLSNIEHMKKFVGQLCGKYDTVSHVEELLYNDEFGDLMSSTDVNEKRYTPRNTALLKFVDAASINNCWNALKKYSNLHAKHPNELFEWTYTTPSFTTFVNFYKPLDIDYLKEDIHTHMAIFEQREAQAQEDVQSSIVDEDGFTLVVGKNTKSLNSIRKKILNKNPLSKHENKAKPISNIDKKAKKDFYRFQVRERKKQEINQLLSKFKEDQERIKVMKAKRKFNPYT
B4: Rrp7 Δ163–188 (deletion of the linker region) (protein, UniProt P25368)
chain: MGIEDISAMKNGFIVVPFKLPDHKALPKSQEASLHFMFAKRHQSSNSNESDCLFLVNLPLLSNIEHMKKFVGQLCGKYDTVSHVEELLYNDEFGLHEVDLSALTSDLMSSTDVNEKRYTPRNTALLKFVDAASINNCWNALKKYSNLHAKHPNELFEWTYTTAIFEQREAQAQEDVQSSIVDEDGFTLVVGKNTKSLNSIRKKILNKNPLSKHENKAKPISNIDKKAKKDFYRFQVRERKKQEINQLLSKFKEDQERIKVMKAKRKFNPYT
B5: Rrp7 F38D (protein, UniProt P25368 1-297)
chain: B1 chain with F38D
B6: Rrp7 Δ1–89 (domain or fragment, UniProt P25368 90-297)
chain: NDEFGLHEVDLSALTSDLMSSTDVNEKRYTPRNTALLKFVDAASINNCWNALKKYSNLHAKHPNELFEWTYTTPSFTTFVNFYKPLDIDYLKEDIHTHMAIFEQREAQAQEDVQSSIVDEDGFTLVVGKNTKSLNSIRKKILNKNPLSKHENKAKPISNIDKKAKKDFYRFQVRERKKQEINQLLSKFKEDQERIKVMKAKRKFNPYT
B7: Rrp7 Δ1–156 (domain or fragment, UniProt P25368 157-297)
chain: EWTYTTPSFTTFVNFYKPLDIDYLKEDIHTHMAIFEQREAQAQEDVQSSIVDEDGFTLVVGKNTKSLNSIRKKILNKNPLSKHENKAKPISNIDKKAKKDFYRFQVRERKKQEINQLLSKFKEDQERIKVMKAKRKFNPYT
B8: Rrp7 CTD alone (Δ1–190) (domain or fragment, UniProt P25368 191-297)
chain: FEQREAQAQEDVQSSIVDEDGFTLVVGKNTKSLNSIRKKILNKNPLSKHENKAKPISNIDKKAKKDFYRFQVRERKKQEINQLLSKFKEDQERIKVMKAKRKFNPYT

What follows are binders tested against T1, Utp22 fused to GAL4 DNA-binding domain (S. cerevisiae) (assay: two-hybrid; … GAL4 system, strain AH109; Utp22 on GAL4 BD as bait, Rrp7 and mutants on GAL4 AD as prey; growth on SC -Leu -Trp -His with 5 mM 3-AT (intermediate stringency) and SC -Leu -Trp -His -Ade (high stringency), 3 d at 30°C).

Binder	binding
B1	binds
B2	binds
B3	binds
B4	binds
B5	binds
B6	binds
B7	binds
B8	no binding
